Source: the supplement of paper PMC7125110
± gives the standard error. This sample is rich in variants without activity.

B1: glmS ribozyme (parent)
chain: AUAAAAGCGCCAGAACUACAGAAAUGUAGUUGACGAGGAGGAGGUUUAUCGAAUUUUCGGCGGAUGCCUCCAAA

Tests used:
Details in all cases: with glucosamine-6-phosphate
[1] = variants of: B1; assay: self-cleavage kobs at 40 uM GlcN6P; higher = faster cleavage; RNA array
Procedure, shortened: (§1)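 Over ~14 h at 37 °C, tiles were imaged as glucosamine-6-phosphate (40 μM to 10 mM) in HEPES/KCl/Mg(OAc)2 buffer flowed across sequenced MiSeq chips. The chips carried barcoded ribozyme variants transcribed in situ by E. coli RNA polymerase and tracked with a hybridised Cy3 probe. After normalisation to baseline and to non-cleaving reference variants, one- or two-exponential decay fits of per-tile medians gave kobs. kcat and KM followed from weighted Michaelis–Menten fits across concentrations.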

[2] = variants of: B1; assay: self-cleavage kobs at 640 uM GlcN6P; higher = faster cleavage; RNA array
Procedure, shortened: as §1

[3] = variants of: B1; assay: self-cleavage kobs at 160 uM GlcN6P; higher = faster cleavage; RNA array
Procedure, shortened: as §1

[4] = variants of: B1; assay: self-cleavage kobs at 2500 uM GlcN6P; higher = faster cleavage; RNA array
Procedure, shortened: as §1

[5] = variants of: B1; assay: self-cleavage kobs at 10000 uM GlcN6P; higher = faster cleavage; RNA array
Procedure, shortened: as §1

Row | Variant | self-cleavage kobs at 40 uM GlcN6P [1] [s⁻¹] | self-cleavage kobs at 640 uM GlcN6P [2] [s⁻¹] | self-cleavage kobs at 160 uM GlcN6P [3] [s⁻¹] | self-cleavage kobs at 2500 uM GlcN6P [4] [s⁻¹] | self-cleavage kobs at 10000 uM GlcN6P [5] [s⁻¹]
1 | AUAAAAGCGCCUGAACUACAGAAAUGUAGUUGACGAGGACGAGGUUUAUCGAAUUUUCGGCGGAUGCCUCCAAA [A12U G40C] | 0.000175 ± 2e-05 | 0.0014 ± 0.00029 | 0.000567 ± 9.5e-05 | 0.00529 ± 0.0011 | 0.00509 ± 0.00057
2 | AUAAAAGCGCCCGAACUACAGAAAUGUAGUUGACGAGGAGGAGGUUUAUUGAAUUUUCGGGGGAUGCCUCCAAA [A12C C50U C61G] | < 1e-05 | – | – | – | < 1e-05
3 | AUAAAAGCGCUAGAACUACAGAAAUGUAGUUGACGAGGAGGAGCUGUAUCGAAUUUUCGGCGGAUGCCUCCAAA [C11U G44C U46G] | < 1e-05 | < 1e-05 | – | – | < 1e-05
4 | AUAAAAGCGCCGGAACUACAGAAAUGUAUUUGACGAGGAGGAGAUUUAUCGAAUUUUCGGCGAAUGCCUCCAAA [A12G G29U G44A G63A] | < 1e-05 | – | – | – | –
5 | AUAAAAGCGCCGGAACUACAGAAAUGUAGUUGACGAGCAGGAGGUUUAUCGAAUUUUCGGCGGAUGCCUCCAAA [A12G G38C] | < 1e-05 | < 1e-05 | < 1e-05 | < 1e-05 | < 1e-05
6 | AUAAAAGCGCCGGAACUACAGAAAUGUAGUUGACGAGAAGGAGGUUUAUCGAAUUUUCGGCGGAUGCCUCCAAA [A12G G38A] | < 1e-05 | – | – | – | < 1e-05
7 | AUAAAAGCGCCCGAACUACAGAAAUGUAGUUGACGAGGAGGAGGUUUAUCGAAUUUUUGGCGUAUGCCUCCAAA [A12C C58U G63U] | < 1e-05 | – | – | – | < 1e-05
8 | AUAAAAGCGCCAAAACUACAGAAAUGUAGUUGACGAGGAGGAGGUUUAUCGAAUUUUCGGCGCAUGCCUCCAAA [G13A G63C] | < 1e-05 | < 1e-05 | < 1e-05 | < 1e-05 | –
9 | AUAAAAGCGCCCGAAGUACAGAAAUGUAGUUGACGAGGAGGAGGUUUAUCGGAUUUGCGGCGGAUGCCUCCAAA [A12C C16G A52G U57G] | < 1e-05 | – | – | – | –
10 | AUAAAAGCGCCAAAACUACAGAAAUGUAGUUGACGAGGAGGAGGUUUAUCGAAUUUUCGGCGGAUCCCUCCAAA [G13A G66C] | < 1e-05 | – | – | – | –
11 | AUAAAAGCGCUAGAACUACAGAAAUGUAGUUCACGAGGAGGAGGUUUAUCGAAUGUUCGGCGGCUGCCUCCAAA [C11U G32C U55G A64C] | < 1e-05 | – | – | – | –
12 | AUAAAAGCGCCAAAACUACAGAAAUGUAGUUGACGCGGAGCAGGUUUAUCGAAUCUUCGGCGGAUGCCUCAAAA [G13A A36C G41C U55C C71A] | < 1e-05 | – | – | – | < 1e-05
13 | AUAAAAGCGCCCGAACUACAGAAAUGUAGUAGACGAGGAGGAGGUUUGUCGAAUUUUCGGCGGAUGCCUCCAAA [A12C U31A A48G] | < 1e-05 | – | – | – | –
14 | AUAAAAGCGCCCGAACUACAGAAAUGUAGUUGACGAGGAGGAGGUUUAUCGAAUUUGCGGCGGAUGCCUCCAAA [A12C U57G] | < 1e-05 | – | < 1e-05 | – | –
15 | AUAAAAGCGCCCGAACUACAGAAAUGUAGUUGACGAGGAGGAGGGUUAUCGAAUUUUCGGCGGUUGCCUCCAAA [A12C U45G A64U] | < 1e-05 | < 1e-05 | – | – | –
16 | AUAAAAGCGCCAAAACUACAGAAAUGUAGUUGACGAGGAGGAGGUUUAUUGAAUUUUCGUCGGAUGCCUCCAAA [G13A C50U G60U] | < 1e-05 | – | – | – | –
17 | AUAAAAGCGCUAGAACUACAGAAAUGUAGUUGACGAGGAGGAGGUUUAUCGAAUUAGCGGCGGAUGCCUCCAAA [C11U U56A U57G] | < 1e-05 | < 1e-05 | – | – | –
18 | AUAAAAGCGCCCGAUCUACAGAAAUGUAGUUGACGAGGAGGAGGUUUAUCGAAUUUUCGGCGGAUGCCUCCAAA [A12C A15U] | 7.96e-05 ± 8.9e-06 | 0.00126 ± 0.0002 | 0.000208 ± 3.6e-05 | 0.0012 ± 0.00021 | 0.00271 ± 0.00031
19 | AUAAAAGCGCCUGAACUACAGAAAUGUAGUUGACGAGGAGGAGGUUUCUCGAAUUUUCGGGGGAUGCCUCCAAA [A12U A48C C61G] | < 1e-05 | < 1e-05 | < 1e-05 | < 1e-05 | < 1e-05
20 | AUAAAAGCGCCCGAACUACAGAAAUGUAGUUGACGAGGAGGAGGUUUACCGAAUUGUGGGCGGAUGCCUCCAAA [A12C U49C U56G C58G] | < 1e-05 | < 1e-05 | – | – | < 1e-05
21 | AUAAAAGCGCCAAACCUACAGAAAUGUAGUUGACGAGUAGGAGGUUUGUCGCAUUUUCGGCGGAUGCCUCCAAA [G13A A15C G38U A48G A52C] | < 1e-05 | – | – | – | < 1e-05
22 | AUAAAAGCGCCUGAAUUACAGAAAUGUAGUUGACGAGGAGGAGGUUUAUCGAAUUUUCGGCAGAUGCCUCCAAA [A12U C16U G62A] | < 1e-05 | – | – | – | –
23 | AUAAAAGCGCCCGAACUACAGAAAUGUAGCUGACGAGGAGAAGGGGUAUCGAAUUUUCGGCGGAUGCCUCCAAA [A12C U30C G41A U45G U46G] | < 1e-05 | < 1e-05 | – | < 1e-05 | < 1e-05
24 | AUAAAAGCGCCAAAACUACAGAAAUGUAGUUGACGAGGCGGAGGUUUAUCGAAUUUUCAGCGGAUGCCUCCAAA [G13A A39C G59A] | < 1e-05 | – | – | – | < 1e-05
25 | AUAAAAGCGCCCGAACUACAGAAAUGUAGUUGCCGAGGAGGAGGUUUAUCGAAUUUUCGGCGGAUGCCUCGAAA [A12C A33C C71G] | < 1e-05 | – | – | – | < 1e-05
26 | AUAAAAGCGCCUGAACUACAGAAAUGUAGUUGACGAGGAGGAGGUCUAUCGAAUUUUCGGCGGAUGCCUCCAAA [A12U U46C] | 0.000227 ± 3.3e-05 | 0.00223 ± 0.00068 | 0.00106 ± 0.00025 | 0.00688 ± 0.0018 | 0.0123 ± 0.0017
27 | AUAAAAGCGCCCGAACUACAGAAAUGUAGUUGACGAGGAGGAGGUUUAUGGAAUUUUCGGCGGAUGCCUCCAAA [A12C C50G] | 5.75e-05 ± 1.5e-05 | 5.32e-05 ± 1.5e-05 | 0.000244 ± 8.9e-05 | 8.38e-05 ± 1.9e-05 | –
28 | AUAAAAGCGCUAGAACUACAGAAAUGUAGUCGACGAGGAGGAGGUCUAGCGAAUUAUCGGCGGAUGCCUCCAAA [C11U U31C U46C U49G U56A] | < 1e-05 | – | – | – | –
29 | AUAAAAGCGCCGGCACUACAGAAAUGUAGUUGACGAGCAGGAGGUUUAGCGAAUUUUCGUCGGAUGUCUCCAAA [A12G A14C G38C U49G G60U C67U] | < 1e-05 | < 1e-05 | – | – | –
30 | AUAAAAGCGCCCGAACUACAGAAAUGUAGUUGACGAGGUGGAGGUUUAUCGAAUUUUUGGGGGAUGCCUCCAAA [A12C A39U C58U C61G] | < 1e-05 | – | – | – | –
